In the supplement of paper PMC10986608:
This is one part of the list. Repeats are few or missing, and single values can be far off.

System: Candida albicans DPL-15
Experiment: growth (OD600) after compound treatment (apparently relative to screen median) (relative growth (fraction; screen median 1.02)); DPL-15 is a caspofungin-resistant clinical isolate; higher = more fungal growth (less antifungal activity)
Conditions: 25 µM; RPMI 1640; 48 h; 30 °C

SMILES | growth
C=CC[C@]12C[C@@]3(O[C@H](C(C)C)N=C3C[C@H](c3ccc(OC)cc3)[C@H]1C)N(Cc1cccnc1)C2=O | 0.98
COC(=O)c1cc2c(c3c4cc(OC)ccc4n(S(=O)(=O)c4cccc(C)c4)c13)C(=O)N(Cc1cccc(F)c1)C2 | 1.09
COc1ccc(N2C(=O)c3[nH]nc(CC(C)C)c3C2c2cccc(C(F)(F)F)c2)cc1 (stereo unspecified) | 0.924
CC(=O)C1=C2C=CCCN2C(=O)NC1c1cc(F)ccc1C(F)(F)F (stereo unspecified) | 0.95
CCCCC/C=C/NC(=O)c1ccccc1 | 0.891
COC(=O)C/C=C/[C@H](C)[C@H](/C=C/c1ccccc1)NC(=O)[C@@H](Cc1ccccc1)NC(=O)OC(C)(C)C | 0.941
COc1cc(F)cc2c1[C@]1(O)[C@H](O)[C@H](C#N)[C@@H](c3ccccc3)[C@]1(c1ccc(Br)cc1)O2 | 1.02
CN(C)CCn1cc(Nc2cc(O)cc(O)c2C(=O)N2CC3CC3C2)cn1 (stereo unspecified) | 1.13
CC(=O)OC[C@H]1O[C@H](C#Cc2ccc(C(F)(F)F)cc2)C=C[C@H]1OC(C)=O | 0.887
CC1=C(O)C=CC(=O)C12Oc1cc(C)cc(O)c1C2=O (stereo unspecified) | 1.31
CC(=O)C1=C2C=CCCN2C(=O)NC1c1ccccc1Br (stereo unspecified) | 0.932
COc1ccc([C@@]23Oc4cc(OC)cc(OC)c4[C@]2(O)[C@H](O)[C@H](C(=O)c2cc4cccc(OC)c4o2)[C@H]3c2ccccc2)cc1 | 1.12
COc1cc(CO[C@H]2C=C[C@@H](c3ccccc3)O[C@@H]2CO)cc(OC)c1 | 1.1
BrC1=C[C@H](c2ccccc2)[C@@H](c2ccccc2)[C@@]12CCCO2 | 1.09
CCOC1=NCC(=O)N(C)[C@H]1C | 0.984
CC(=O)c1c(C)oc(=O)c2c1OC1=C(C(=O)CCC1)[C@@]21C(=O)N(C)c2ccccc21 | 0.954
CCCCNCC[C@@]12[C@H](NC(C)=O)[C@@H](C)[C@H](OCc3ccccc3)[C@@]13C=CC=C[C@H]32 | 1.42
CC1(C)OB(c2ccc(NS(=O)(=O)N3CCOCC3)cc2)OC1(C)C | 1.09
C[C@H]1CC[C@H]2C(=O)N(Cc3ccc(Cl)cc3)C[C@@H](O)CN2[C@@H]1c1ccc(Br)cc1 | 1.08
COc1ccc([C@@]23Oc4cc(OC)cc(OC)c4[C@]2(O)[C@H](O)[C@H](CO)[C@H]3c2ccccc2)cc1 | 0.968
C[C@@H]1/C=C/CC(=O)OCCCCC(=O)N2CCC[C@H]2C(=O)N[C@@H]1c1ccc(Br)cc1 | 0.977
